Laboratory results reported in the supplement of paper PMC7826260.
The list shows a part of the results. The data describe in vitro nicking of single-stranded DNA by Rep domains at 3 µM enzyme and 37 °C for 1 h; the strands have 90 letters, of which the middle is given. Uncut reads are compared with the no-enzyme pool on a log2 scale; strong cutting gives strongly negative numbers. There is no active / inactive call. Shares of all reads are compared; where an enzyme cuts many sequences, the uncut ones exceed 0.

Experiments:
Assay in all cases: uncleaved DNA left, log2 of reads against the no-enzyme library (log2 ratio); higher = less cleavage (more negative = more Rep cleavage of the k-mer); sequences stand for … in CTCGTCCG…ACCGGAGA
[1] = tested on: T1, Rep nickase domain of Muscovy duck circovirus
T1 sequence (Rep 1-111, printed without the tag): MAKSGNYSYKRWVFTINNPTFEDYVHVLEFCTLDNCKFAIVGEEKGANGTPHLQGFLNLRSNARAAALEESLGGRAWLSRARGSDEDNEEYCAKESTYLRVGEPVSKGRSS
Method: (§1)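 A pool of 90-nt single-stranded DNAs with seven random bases just before the constant AC of the nick site (name = the seven bases) was cut by 3 µM recombinant His6-SUMO-tagged Rep nickase domain (300 nM DNA, 50 mM HEPES pH 8.0, 50 mM NaCl, 1 mM MnCl2, 1 h, 37 °C, three replicates). Uncut DNA was amplified and sequenced.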

[2] = tested on: T2, Rep nickase domain of banana bunchy top virus
T2 sequence (Rep 1-94, printed without the tag): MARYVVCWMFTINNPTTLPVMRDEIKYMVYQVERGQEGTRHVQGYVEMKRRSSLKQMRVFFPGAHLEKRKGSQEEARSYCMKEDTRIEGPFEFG
Method: as §1

[3] = tested on: T3, Rep nickase domain of cabbage leaf curl virus
T3 sequence (Rep 1-116, printed without the tag): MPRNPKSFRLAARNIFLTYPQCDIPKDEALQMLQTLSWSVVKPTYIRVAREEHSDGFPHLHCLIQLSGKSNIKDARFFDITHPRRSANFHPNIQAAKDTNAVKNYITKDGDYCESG
Method: as §1

[4] = tested on: T4, Rep nickase domain of chickpea chlorotic dwarf virus
T4 sequence (Rep 1-124, printed without the tag): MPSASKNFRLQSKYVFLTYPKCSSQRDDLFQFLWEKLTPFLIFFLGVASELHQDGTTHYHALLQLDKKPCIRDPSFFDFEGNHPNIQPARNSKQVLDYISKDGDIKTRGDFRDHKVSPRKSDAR
Method: as §1

[5] = tested on: T5, Rep nickase domain of faba bean necrotic yellows virus
T5 sequence (Rep 1-98, printed without the tag): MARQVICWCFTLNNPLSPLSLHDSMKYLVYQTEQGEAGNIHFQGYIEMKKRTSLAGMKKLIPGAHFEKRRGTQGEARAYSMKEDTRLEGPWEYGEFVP
Method: as §1

[6] = tested on: T6, Rep nickase domain of maize striate mosaic virus
T6 sequence (Rep 1-117, printed without the tag): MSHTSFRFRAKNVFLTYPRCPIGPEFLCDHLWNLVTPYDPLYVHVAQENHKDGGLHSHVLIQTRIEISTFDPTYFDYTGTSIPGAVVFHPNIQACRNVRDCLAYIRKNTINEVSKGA
Method: as §1

[7] = tested on: T7, Rep nickase domain of porcine circovirus 2
T7 sequence (Rep 2-116, printed without the tag): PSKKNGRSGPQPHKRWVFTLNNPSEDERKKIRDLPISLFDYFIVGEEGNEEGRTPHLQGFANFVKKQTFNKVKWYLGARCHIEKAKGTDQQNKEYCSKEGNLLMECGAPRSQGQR
Method: as §1

[8] = tested on: T8, Rep nickase domain of tomato golden mosaic virus
T8 sequence (Rep 1-124, printed without the tag): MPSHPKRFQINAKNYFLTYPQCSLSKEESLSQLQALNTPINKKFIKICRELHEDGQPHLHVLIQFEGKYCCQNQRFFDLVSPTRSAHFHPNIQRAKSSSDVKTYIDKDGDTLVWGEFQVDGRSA
Method: as §1

[9] = tested on: T9, Rep nickase domain of tomato yellow leaf curl virus
T9 sequence (Rep 1-136, printed without the tag): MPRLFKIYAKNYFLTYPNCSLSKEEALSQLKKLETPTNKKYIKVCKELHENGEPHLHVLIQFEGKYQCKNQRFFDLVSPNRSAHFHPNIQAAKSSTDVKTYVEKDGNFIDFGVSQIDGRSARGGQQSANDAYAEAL
Method: as §1

[10] = tested on: T10, Rep nickase domain of wheat dwarf virus
T10 sequence (Rep 1-137, printed without the tag): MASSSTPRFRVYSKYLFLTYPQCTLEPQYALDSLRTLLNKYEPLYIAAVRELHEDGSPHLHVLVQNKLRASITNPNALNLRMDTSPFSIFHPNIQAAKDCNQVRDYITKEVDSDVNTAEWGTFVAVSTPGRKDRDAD
Method: as §1

Sequence | uncleaved DNA left (log2) [1] | uncleaved DNA left (log2) [2] | uncleaved DNA left (log2) [3] | uncleaved DNA left (log2) [4] | uncleaved DNA left (log2) [5] | uncleaved DNA left (log2) [6] | uncleaved DNA left (log2) [7] | uncleaved DNA left (log2) [8] | uncleaved DNA left (log2) [9] | uncleaved DNA left (log2) [10]
TATACCT | -0.507 | -1.13 | -0.647 | -3.03 | 0.0161 | -0.116 | -2.01 | -0.221 | 0.0193 | -0.0649
TCGTGAC | -0.093 | -0.0339 | 0.298 | 0.586 | -0.0298 | 0.442 | -0.0476 | -0.102 | -0.0165 | -0.0313
AAATCGA | 0.0201 | 0.048 | -0.643 | -0.976 | 0.0341 | -1.36 | 0.0498 | -0.00522 | -0.0674 | -0.0807
TTTATAC | -0.173 | -0.0275 | 0.234 | -0.531 | -0.0284 | -0.189 | -0.0847 | -0.0683 | -0.0211 | 0.0777
AGATATT | -3.77 | -1.07 | -2.73 | -2.9 | -0.183 | 0.0399 | -4.37 | -0.777 | -0.104 | -3.1
TCGTTAA | 0.0498 | -0.0117 | -0.0906 | -0.189 | 0.014 | -0.428 | -0.198 | -0.129 | -0.166 | -0.0716
CGACGTG | 0.136 | 0.134 | 0.0388 | 0.565 | 0.0857 | 1.31 | 0.0454 | 0.0447 | 0.0102 | 0.0906
AAGTACA | -0.0636 | -0.111 | -0.143 | -2.03 | -0.129 | -0.333 | -2.57 | -0.0698 | 0.101 | 0.0613
TCGAGAC | 0.136 | 0.00791 | 0.842 | 1.3 | 0.015 | 1.56 | -0.0322 | 0.0657 | 0.0581 | 0.2
ATATTCA | -0.112 | 0.0441 | -0.167 | -1.42 | -0.0901 | -0.929 | -0.282 | -0.0459 | 0.0894 | 0.0235
GGGTAAC | 0.0416 | 0.0642 | 0.726 | 1.72 | 0.0322 | 2.19 | 0.129 | 0.115 | 0.0893 | 0.139
TGGTTCG | -0.172 | -0.187 | -0.961 | -0.121 | -0.16 | -0.979 | -0.0722 | -0.224 | -0.147 | -0.271
TGAGCCG | 0.164 | 0.0854 | -0.558 | -0.472 | 0.0728 | -0.847 | 0.297 | 0.0334 | 0.0997 | 0.0765
TTGCATC | 0.0406 | -0.104 | -0.472 | -0.756 | -0.0601 | -1.02 | -0.053 | -0.0578 | 0.00365 | -0.0213
GTGCTCA | -0.015 | -0.076 | 0.196 | 0.895 | -0.0811 | 1.63 | 0.0507 | -0.0141 | 0.001 | 0.0749
